Data on two molecules can be found in publication PMC11876325.

Residue numbers refer to the chain shown, from its start. These are yes or no findings as the source states them, for the method shown. Some entries that bind do so weakly or less than the wild type.

What all share (experiment): two-hybrid; GAL4 DNA-binding domain (pGBD) and GAL4 activation domain (pGAD) fusions co-transformed into PJ69-4α (also its rad51∆, rad55∆, csm2∆, shu1∆ and shu2∆ derivatives); growth on SC-L-W-H, 2-3 days, 30 °C
The target in assay [1] is T1, Csm2-KRRR (pGBD csm2-K189A, R190A, R191A, R192A) (S. cerevisiae) (UniProt P40465).
T1 sequence: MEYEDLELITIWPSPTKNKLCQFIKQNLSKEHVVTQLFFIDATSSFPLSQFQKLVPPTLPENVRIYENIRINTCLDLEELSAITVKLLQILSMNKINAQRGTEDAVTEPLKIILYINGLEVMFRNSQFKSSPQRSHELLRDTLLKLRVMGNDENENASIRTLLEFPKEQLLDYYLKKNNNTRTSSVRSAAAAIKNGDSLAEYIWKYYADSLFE

Assay [2] has as its target T2, Psy3 (pGBD Psy3) (S. cerevisiae) (UniProt Q12318).
T2 sequence: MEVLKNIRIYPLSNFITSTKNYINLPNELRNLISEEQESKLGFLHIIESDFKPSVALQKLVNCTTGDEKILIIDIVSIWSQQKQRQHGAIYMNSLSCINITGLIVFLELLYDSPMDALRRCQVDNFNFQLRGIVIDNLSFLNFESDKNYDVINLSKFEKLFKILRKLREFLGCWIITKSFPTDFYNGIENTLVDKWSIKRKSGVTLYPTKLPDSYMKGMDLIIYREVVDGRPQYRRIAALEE

Assay [3] concerns the target T3, Psy3-F15A (pGBD psy3-F15A) (S. cerevisiae) (UniProt Q12318).
T3 sequence: T2 sequence with F15A

The target in assay [4] is T4, Psy3-Y10A (pGBD psy3-Y10A) (S. cerevisiae) (UniProt Q12318).
T4 sequence: T2 sequence with Y10A

Assay [5] has as its target T5, Rad55 (pGBD Rad55) (S. cerevisiae) (UniProt P38953).
T5 sequence: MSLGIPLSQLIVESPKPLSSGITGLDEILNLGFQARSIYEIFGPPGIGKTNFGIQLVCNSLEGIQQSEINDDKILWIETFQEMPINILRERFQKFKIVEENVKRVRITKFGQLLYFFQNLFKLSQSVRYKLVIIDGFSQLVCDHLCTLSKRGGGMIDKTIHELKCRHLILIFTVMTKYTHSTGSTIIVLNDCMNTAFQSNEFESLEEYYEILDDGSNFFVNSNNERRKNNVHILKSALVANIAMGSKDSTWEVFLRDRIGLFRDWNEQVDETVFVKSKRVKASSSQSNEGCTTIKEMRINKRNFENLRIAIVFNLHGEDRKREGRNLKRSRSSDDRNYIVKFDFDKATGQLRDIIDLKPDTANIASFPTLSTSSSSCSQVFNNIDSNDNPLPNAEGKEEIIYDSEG

For assay [6], the target named is T6, Rad57 (pGBD Rad57) (S. cerevisiae) (UniProt P25301).
T6 sequence: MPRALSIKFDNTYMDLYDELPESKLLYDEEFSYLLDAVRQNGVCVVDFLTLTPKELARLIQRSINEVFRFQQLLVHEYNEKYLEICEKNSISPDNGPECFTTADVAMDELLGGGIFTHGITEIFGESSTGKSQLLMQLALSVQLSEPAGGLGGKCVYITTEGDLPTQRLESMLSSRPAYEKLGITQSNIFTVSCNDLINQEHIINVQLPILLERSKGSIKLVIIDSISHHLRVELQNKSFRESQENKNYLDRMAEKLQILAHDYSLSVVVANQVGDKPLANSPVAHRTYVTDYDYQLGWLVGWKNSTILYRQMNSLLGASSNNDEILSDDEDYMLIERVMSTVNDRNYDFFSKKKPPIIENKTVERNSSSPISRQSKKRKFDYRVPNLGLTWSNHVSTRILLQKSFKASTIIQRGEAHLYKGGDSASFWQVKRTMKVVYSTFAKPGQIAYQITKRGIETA

B1: Orc6 (pGAD ORC6) (protein, UniProt P38826 1-435)
chain: MSMQQVQHCVAEVLRLDPQEKPDWSSGYLKKLTNATSILYNTSLNKVMLKQDEEVARCHICAYIASQKMNEKHMPDLCYYIDSIPLEPKKAKHLMNLFRQSLSNSSPMKQFAWTPSPKKNKRSPVKNGGRFTSSDPKELRNQLFGTPTKVRKSQNNDSFVIPELPPMQTNESPSITRRKLAFEEDEDEDEEEPGNDGLSLKSHSNKSITGTRNVDSDEYENHESDPTSEEEPLGVQESRSGRTKQNKAVGKPQSELKTAKALRKRGRIPNSLLVKKYCKMTTEEIIRLCNDFELPREVAYKIVDEYNINASRLVCPWQLVCGLVLNCTFIVFNERRRKDPRIDHFIVSKMCSLMLTSKVDDVIECVKLVKELIIGEKWFRDLQIRYDDFDGIRYDEIIFRKLGSMLQTTNILVTDDQYNIWKKRIEMDLALTEPL
As to B1, the binding entry in assay [1] was “binds”; in assay [2], “binds”; in assay [3], “no binding”; in assay [4], “no binding”; in assay [5], “binds weakly”; in assay [6], “no binding”.

B2: Mcm4 (pGAD Mcm4) (protein, UniProt P30665 1-933)
chain: MSQQSSSPTKEDNNSSSPVVPNPDSVPPQLSSPALFYSSSSSQGDIYGRNNSQNLSQGEGNIRAAIGSSPLNFPSSSQRQNSDVFQSQGRQGRIRSSASASGRSRYHSDLRSDRALPTSSSSLGRNGQNRVHMRRNDIHTSDLSSPRRIVDFDTRSGVNTLDTSSSSAPPSEASEPLRIIWGTNVSIQECTTNFRNFLMSFKYKFRKILDEREEFINNTTDEELYYIKQLNEMRELGTSNLNLDARNLLAYKQTEDLYHQLLNYPQEVISIMDQTIKDCMVSLIVDNNLDYDLDEIETKFYKVRPYNVGSCKGMRELNPNDIDKLINLKGLVLRSTPVIPDMKVAFFKCNVCDHTMAVEIDRGVIQEPARCERIDCNEPNSMSLIHNRCSFADKQVIKLQETPDFVPDGQTPHSISLCVYDELVDSCRAGDRIEVTGTFRSIPIRANSRQRVLKSLYKTYVDVVHVKKVSDKRLDVDTSTIEQELMQNKVDHNEVEEVRQITDQDLAKIREVAAREDLYSLLARSIAPSIYELEDVKKGILLQLFGGTNKTFTKGGRYRGDINILLCGDPSTSKSQILQYVHKITPRGVYTSGKGSSAVGLTAYITRDVDTKQLVLESGALVLSDGGVCCIDEFDKMSDSTRSVLHEVMEQQTISIAKAGIITTLNARSSILASANPIGSRYNPNLPVTENIDLPPPLLSRFDLVYLVLDKVDEKNDRELAKHLTNLYLEDKPEHISQDDVLPVEFLTMYISYAKEHIHPIITEAAKTELVRAYVGMRKMGDDSRSDEKRITATTRQLESMIRLAEAHAKMKLKNVVELEDVQEAVRLIRSAIKDYATDPKTGKIDMNLVQTGKSVIQRKLQEDLSREIMNVLKDQASDSMSFNELIKQINEHSQDRVESSDIQEALSRLQQEDKVIVLGEGVRRSVRLNNRV
As for B2, the binding result in assay [1] is “binds”; in assay [2], “binds”; in assay [3], “no binding”; in assay [4] it was “no binding”; in assay [5], “no binding”; in assay [6] it was “no binding”.
